# Experimental data: publication PMC4414544
# Amino acid sequences for entries named in this document (tags omitted). A change or cut given only in a name is not applied to a line headed by its entry.
# UniProt P63073: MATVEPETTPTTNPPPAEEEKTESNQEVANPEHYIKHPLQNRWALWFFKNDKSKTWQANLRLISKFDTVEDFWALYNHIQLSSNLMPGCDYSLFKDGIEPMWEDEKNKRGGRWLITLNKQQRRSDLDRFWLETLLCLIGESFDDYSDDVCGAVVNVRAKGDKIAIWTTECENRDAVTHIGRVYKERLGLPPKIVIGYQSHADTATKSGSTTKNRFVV
# UniProt P06730: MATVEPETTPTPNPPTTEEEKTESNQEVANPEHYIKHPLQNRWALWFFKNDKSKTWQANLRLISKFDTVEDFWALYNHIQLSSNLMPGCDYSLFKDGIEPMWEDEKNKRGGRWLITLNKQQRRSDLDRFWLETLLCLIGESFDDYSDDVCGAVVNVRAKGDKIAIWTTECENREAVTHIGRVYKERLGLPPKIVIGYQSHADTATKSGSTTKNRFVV
# Results are given in words; binding and its absence hold for the method and conditions named. In cells and extracts the contact can be indirect. Some entries that bind do so weakly or less than the wild type.
# What was measured:
# [1] = biological target: endogenous eIF4E of mouse embryonic fibroblasts (mouse (endogenous in MEFs)) (UniProt P63073); assay: co-IP; eIF4E antibody, lysates of MEF WT and MEF Mnk1/2 KO, normal conditions; blot for 4E-T
# [2] = biological target: endogenous phospho-eIF4E (Ser-209) of MDA-MB-231 cells (human (endogenous in MDA-MB-231)) (UniProt P06730); assay: co-IP; endogenous eIF4E precipitated with the phospho-specific antibody of eIF4E or with total eIF4E antibody from MDA-MB-231 lysate; cells treated with arsenite with or without CGP 57380; blot for 4E-T
# [3] = biological target: endogenous eIF4E (total) of MDA-MB-231 cells (human (endogenous in MDA-MB-231)) (UniProt P06730); assay: as above
# [4] = biological target: endogenous phospho-eIF4E (Ser-209) of MDA-MB-231 cells (human (endogenous in MDA-MB-231)) (UniProt P06730); assay: co-IP; immunoprecipitation of endogenous peIF4E from MDA-MB-231 lysate two hours after arsenite treatment; blot for 4E-T
# [5] = biological target: Myc-tagged phospho-dead eIF4E-S209A (UniProt P06730); assay: co-IP; anti-Myc tag antibody precipitates exogenous Myc-eIF4E mutants from MDA-MB-231 lysate, normal conditions; Protein G Sepharose, 4°C; lysis buffer 250 mM Tris-HCl, 150 mM NaCl, 1% Triton X-100, 5 mM EDTA; blot for 4E-T
# [6] = biological target: Myc-tagged phosphomimetic eIF4E-S209D (UniProt P06730); assay: as above
# Myc-tagged eIF4E-W73A = Myc-tagged eIF4E-W73A (UniProt P06730); assay: as above
# [7] = biological target: Myc-tagged eIF4E-W73A/S209D (UniProt P06730); assay: as above
binding [1],binding [2],binding [3],binding [5],binding [6],binding (Myc-tagged eIF4E-W73A),binding [7],Binder,binding [4]
binds,–,–,–,–,–,–,"endogenous 4E-T of mouse embryonic fibroblasts (protein, UniProt Q9EST3 1-983) MEKSVAETENGDAFLELKKLPTSKSPHRYTKEELLDIKERPYSKQRPSCLSEKYDSDGVWDPEKWHASLYPASGRSSPVESLKKESESDRPSLVRRIADPRERVKEDDLDVVLSPQRRSFGGGCHVTAAVSSRRSGSPLEKDSDGLRLLGGRRIGSGRIISARAFEKDHRLSDKDLRDLRDRDRERDYKDKRFRREFGDSKRVFGERRRNDSYTEEEPEWFSAGPTSQSETIELTGFDDKILEEDHKGRKRTRRRTASVKEGIVECNGGVAEEDEVEVILAQEPSADQEVPRDVILPEQSPGEFDFNEFFNLDKVPCLASMIEDVLGEGSVSASRFSRWFSNPSRSGSRSSSLGSTPHEELERLAGLEQAVLSPGQNSGNYFAPIPSEDHAENKVDILEMLQKAKVDLKPLLSSLSANKEKLKESSHSGVVLSVEEVEAGLKGLKVDQQMKNSTPFMAEHLEETLSAASSNRQLKKDGDMTAFNKLVNTMKASGTLPTQPKVSRNVESHLLAPAEIPGQPVSKNILQELLGQPVQRPASSNLLSGLMGSLEATASLLSQRAPSPPMSQVFRTQAASADYLHPRIPSPIGFPSGPQQLLGDPFQGMRKPMSPVSAQMSQLELQQAALEGLALPHDLAVQTAPFYQPGFSKPQVDRTRDGLRNRQQRMSKSPAPMHGGNSSSPAPAASITSMLSPSFTPTSVIRKMYESREKTKEEMAPGMVVPGDGKEDTQKTSEENLLSSNPIPNTDQDSSTTNPKLSTLQRSSCSTPLSQTSRYTKEQDYRPKTAGRKTPTLASPVPGTPFLRPTHQVPLVPHVPIVRPAHQLHPGLVQRLIAQGVHPQHLPSLLQAGVLPPGIDMAPLQGLSGPLLGQPLYPLVSAASHPLLNPRPGTPLHLAVMQQQLQRSVLHPPGSSSQAAAISVQTPQNVPSRSGMPHMHSQLEHRTSQRSSSPVGLAKWFGSDVLQQPLPSMPTKVISVDELEYRQ",–
–,binds,binds,no binding,binds,no binding,no binding,"4E-T (eukaryotic translation initiation factor 4E nuclear import factor 1, EIF4ENIF1), endogenous in MDA-MB-231 (protein, UniProt Q9NRA8 1-985) MDRRSMGETESGDAFLDLKKPPASKCPHRYTKEELLDIKELPHSKQRPSCLSEKYDSDGVWDPEKWHASLYPASGRSSPVESLKKELDTDRPSLVRRIVDPRERVKEDDLDVVLSPQRRSFGGGCHVTAAVSSRRSGSPLEKDSDGLRLLGGRRIGSGRIISARTFEKDHRLSDKDLRDLRDRDRERDFKDKRFRREFGDSKRVFGERRRNDSYTEEEPEWFSAGPTSQSETIELTGFDDKILEEDHKGRKRTRRRTASVKEGIVECNGGVAEEDEVEVILAQEPAADQEVPRDAVLPEQSPGDFDFNEFFNLDKVPCLASMIEDVLGEGSVSASRFSRWFSNPSRSGSRSSSLGSTPHEELERLAGLEQAILSPGQNSGNYFAPIPLEDHAENKVDILEMLQKAKVDLKPLLSSLSANKEKLKESSHSGVVLSVEEVEAGLKGLKVDQQVKNSTPFMAEHLEETLSAVTNNRQLKKDGDMTAFNKLVSTMKASGTLPSQPKVSRNLESHLMSPAEIPGQPVPKNILQELLGQPVQRPASSNLLSGLMGSLEPTTSLLGQRAPSPPLSQVFQTRAASADYLRPRIPSPIGFTPGPQQLLGDPFQGMRKPMSPITAQMSQLELQQAALEGLALPHDLAVQAANFYQPGFGKPQVDRTRDGFRNRQQRVTKSPAPVHRGNSSSPAPAASITSMLSPSFTPTSVIRKMYESKEKSKEEPASGKAALGDSKEDTQKASEENLLSSSSVPSADRDSSPTTNSKLSALQRSSCSTPLSQANRYTKEQDYRPKATGRKTPTLASPVPTTPFLRPVHQVPLVPHVPMVRPAHQLHPGLVQRMLAQGVHPQHLPSLLQTGVLPPGMDLSHLQGISGPILGQPFYPLPAASHPLLNPRPGTPLHLAMVQQQLQRSVLHPPGSGSHAAAVSVQTTPQNVPSRSGLPHMHSQLEHRPSQRSSSPVGLAKWFGSDVLQQPLPSMPAKVISVDELEYRQ",no binding (condition: two hours after arsenite treatment)
